Experimental findings from a collection of fitness landscapes (doi:10.1038/s41467-024-54723-y) are described below.

Over roughly 18,000 sequences, “TetR repression strength (sort-seq, GFP reporter)” has its median near 0.23; the highest 2% begin near 0.68. The list shows a part of the results.

Sequence of UniProt P04483 (P04483 whole entry): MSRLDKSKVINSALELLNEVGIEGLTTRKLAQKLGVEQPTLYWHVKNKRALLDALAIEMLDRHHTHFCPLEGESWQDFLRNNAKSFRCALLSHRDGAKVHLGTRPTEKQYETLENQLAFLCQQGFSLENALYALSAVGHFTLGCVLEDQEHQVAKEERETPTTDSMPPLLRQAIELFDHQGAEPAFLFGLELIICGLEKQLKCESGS

The target in this assay is TetR (class B, Tn10) (UniProt P04483). The experiment in a line: TetR repression strength (sort-seq, GFP reporter) (relative to tetO2 = 1); higher = stronger repression. The settings on record: E. coli. In a few lines:
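Three independent transformations of E. coli SIG10-MAX were made with a low-copy plasmid library randomizing eight operator positions between a constitutive promoter and sfGFP, with constitutive TetR. Following 5 h at 37 °C in LB plus 50 µg/mL chloramphenicol, 10^6 cells went through FACS into 13 fluorescence bins, and each bin was sequenced by Illumina. Repression strength was defined as the top bin index plus one minus the read-weighted mean bin, divided by the unaltered operator's value. Averages included only members reaching ≥30 reads in all replicates with a CV ≤0.5.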
TCCCAACTAGTGTGGGAGA registered a TetR repression strength of 0.283.

Take TCCCCAATAGTTGTGGAGA: the TetR repression strength came to 0.165.

As to TCCCGTCCAGTTTTTGAGA, the TetR repression strength worked out at 0.261.

Turning to TCCCTGAGAGTCTGTGAGA, the TetR repression strength amounted to 0.0755.

TCCCAAGTAGTACAGGAGA: the TetR repression strength is 0.16.

TCCCGGGCAGTGGATGAGA came in with a TetR repression strength of 0.217.

For the sequence TCCCTGGAAGTATAGGAGA, the TetR repression strength is 0.222.

For the sequence TCCCACGTAGTCTCCGAGA, the TetR repression strength amounted to 0.213.

Take TCCCATAAAGTGGGTGAGA: the TetR repression strength was determined as 0.2.

Take TCCCAGGCAGTGCTTGAGA: the TetR repression strength stood at 0.113.

The sequence TCCCCGTCAGTAGGCGAGA yielded a TetR repression strength of 0.243.

The sequence TCCCAGGAAGTCAGCGAGA came in with a TetR repression strength of 0.381.

The sequence TCCCGCATAGTCTCGGAGA displayed a TetR repression strength of 0.13.

As for TCCCCATGAGTCTCGGAGA, the TetR repression strength was determined as 0.139.

With TCCCTGCAAGTAGCAGAGA, the TetR repression strength was 0.154.

For TCCCGATTAGTGGGGGAGA, the TetR repression strength was determined as 0.147.

As for TCCCTGGCAGTGCTGGAGA, the TetR repression strength was determined as 0.197.

For the sequence TCCCGTCGAGTCGCGGAGA, the TetR repression strength turned out to be 0.24.

Turning to TCCCAGCCAGTACGCGAGA, the TetR repression strength worked out at 0.0225.

In turn, TCCCACGGAGTGTATGAGA displayed a TetR repression strength of 0.116.

The sequence TCCCTCGAAGTTGGTGAGA displayed a TetR repression strength of 0.421.

The sequence TCCCAGTTAGTGACAGAGA registered a TetR repression strength of 0.33.

On to TCCCCAAGAGTACGAGAGA, for which the TetR repression strength worked out at 0.17.

Turning to TCCCCTATAGTCGCTGAGA, the TetR repression strength was found to be 0.322.

For the sequence TCCCCGTGAGTGAGGGAGA, the TetR repression strength worked out at 0.112.

Turning to TCCCAGGGAGTGCGTGAGA, the TetR repression strength was 0.123.

In turn, TCCCTATCAGTGACCGAGA returned a TetR repression strength of 0.944.

TCCCCAGTAGTGCGGGAGA came in with a TetR repression strength of 0.478.

In turn, TCCCAGGCAGTTGTGGAGA displayed a TetR repression strength of 0.178.

Turning to TCCCGGTAAGTGTAGGAGA, the TetR repression strength came out at 0.152.

On to TCCCTTTTAGTGTCGGAGA, for which the TetR repression strength worked out at 0.233.

Consider TCCCTGGTAGTGCGAGAGA, for which the TetR repression strength stood at 0.186.

Sequence TCCCGTGCAGTGATTGAGA yielded a TetR repression strength of 0.165.

Regarding TCCCGCGAAGTTACTGAGA, the TetR repression strength is 0.4.

The sequence TCCCTTATAGTCCTCGAGA registered a TetR repression strength of 0.411.

Consider TCCCTGAGAGTTTCCGAGA, for which the TetR repression strength is 0.173.

With TCCCGCGCAGTAAGAGAGA, the TetR repression strength came out at 0.255.

TCCCCTAGAGTATAGGAGA came in with a TetR repression strength of 0.231.

TCCCCGGCAGTGGTTGAGA: the TetR repression strength was 0.18.

As to TCCCCACAAGTTCTCGAGA, the TetR repression strength was found to be 0.306.

As for TCCCTGGAAGTAGGTGAGA, the TetR repression strength came to 0.313.

For TCCCCGGAAGTAGAGGAGA, the TetR repression strength came out at 0.157.

Turning to TCCCGAGCAGTTCGTGAGA, the TetR repression strength was found to be 0.378.

Sequence TCCCCTTCAGTTCAGGAGA returned a TetR repression strength of 0.182.

As to TCCCGGTGAGTATCCGAGA, the TetR repression strength was determined as 0.198.

As to TCCCCGACAGTGAGTGAGA, the TetR repression strength was determined as 0.104.

Sequence TCCCGTTAAGTACGCGAGA gave a TetR repression strength of 0.128.

Take TCCCATATAGTTGGTGAGA: the TetR repression strength was found to be 0.292.

TCCCTATCAGTTTGTGAGA registered a TetR repression strength of 0.584.

Consider TCCCGGTCAGTGTAAGAGA, for which the TetR repression strength amounted to 0.436.

On to TCCCGGACAGTTTTAGAGA, for which the TetR repression strength came to 0.0972.

Take TCCCCTGAAGTTGGCGAGA: the TetR repression strength worked out at 0.226.

The sequence TCCCAATCAGTGGGAGAGA gave a TetR repression strength of 0.389.

TCCCTCGTAGTGCGCGAGA had a TetR repression strength of 0.366.

TCCCAGTGAGTCTGCGAGA returned a TetR repression strength of 0.0614.

TCCCATAGAGTAGTGGAGA came in with a TetR repression strength of 0.407.

TCCCACCCAGTTCGCGAGA had a TetR repression strength of 0.0727.

Turning to TCCCTCCGAGTTGCAGAGA, the TetR repression strength came out at 0.553.

TCCCCGAAAGTGTAAGAGA: the TetR repression strength turned out to be 0.482.

Regarding TCCCATACAGTTGTTGAGA, the TetR repression strength amounted to 0.0901.

For TCCCCTACAGTGTGTGAGA, the TetR repression strength stood at 0.118.

In turn, TCCCATGGAGTTTTGGAGA gave a TetR repression strength of 0.377.

Regarding TCCCTCCCAGTGGGAGAGA, the TetR repression strength was determined as 0.334.

For the sequence TCCCTAAGAGTCGAGGAGA, the TetR repression strength is 0.181.

Take TCCCTCCCAGTCTAGGAGA: the TetR repression strength stood at 0.263.

In the case of TCCCGATGAGTGTCGGAGA, the TetR repression strength amounted to 0.196.

In the case of TCCCTAACAGTGAAAGAGA, the TetR repression strength came to 0.575.

TCCCTCGAAGTAGGGGAGA returned a TetR repression strength of 0.154.

In the case of TCCCTGGAAGTGCGGGAGA, the TetR repression strength was 0.16.

The sequence TCCCCATCAGTGGAAGAGA had a TetR repression strength of 0.202.

For TCCCCTCAAGTTGAGGAGA, the TetR repression strength came to 0.293.

As for TCCCTTAAAGTATGGGAGA, the TetR repression strength was found to be 0.267.

Turning to TCCCCAGGAGTTGATGAGA, the TetR repression strength was 0.166.

In the case of TCCCAGCGAGTGCGCGAGA, the TetR repression strength stood at 0.0707.

With TCCCCGTTAGTTCTGGAGA, the TetR repression strength worked out at 0.153.

With TCCCTTCGAGTGCGAGAGA, the TetR repression strength worked out at 0.211.

On to TCCCTGCGAGTTCAAGAGA, for which the TetR repression strength came out at 0.418.

In turn, TCCCAGTCAGTTTGCGAGA came in with a TetR repression strength of 0.167.

With TCCCGAACAGTTGAAGAGA, the TetR repression strength stood at 0.322.

With TCCCGTTTAGTCCTGGAGA, the TetR repression strength was 0.207.

Sequence TCCCGGTCAGTGGATGAGA registered a TetR repression strength of 0.353.

For the sequence TCCCCTCGAGTGAACGAGA, the TetR repression strength amounted to 0.0653.

TCCCGGCGAGTGCGGGAGA came in with a TetR repression strength of 0.254.

Sequence TCCCGAGGAGTGAACGAGA returned a TetR repression strength of 0.208.

As for TCCCGCTCAGTCAGAGAGA, the TetR repression strength came out at 0.295.

Turning to TCCCCGGGAGTAGCCGAGA, the TetR repression strength is 0.207.

Sequence TCCCAAACAGTGGTAGAGA displayed a TetR repression strength of 0.443.

In the case of TCCCAGTCAGTGGGGGAGA, the TetR repression strength is 0.19.

Sequence TCCCACGTAGTGTGCGAGA showed a TetR repression strength of 0.301.

The sequence TCCCAAAGAGTATTCGAGA gave a TetR repression strength of 0.0485.

TCCCTATCAGTACTCGAGA displayed a TetR repression strength of 0.577.

Sequence TCCCGTTCAGTGGATGAGA returned a TetR repression strength of 0.599.

As to TCCCAACAAGTCATCGAGA, the TetR repression strength worked out at 0.337.

The sequence TCCCGGCTAGTTGTGGAGA gave a TetR repression strength of 0.234.

Take TCCCGGCAAGTTATTGAGA: the TetR repression strength amounted to 0.46.

On to TCCCGCACAGTCCTAGAGA, for which the TetR repression strength was 0.351.

On to TCCCTGTGAGTAATGGAGA, for which the TetR repression strength was 0.0647.

TCCCTTATAGTTGTGGAGA gave a TetR repression strength of 0.148.

TCCCGTCGAGTTGGTGAGA: the TetR repression strength stood at 0.177.

On to TCCCTCTTAGTTCAGGAGA, for which the TetR repression strength stood at 0.158.

Turning to TCCCTTAAAGTGTATGAGA, the TetR repression strength is 0.211.

TCCCTTGTAGTCGACGAGA: the TetR repression strength was 0.275.
